Measurements from PubChem BioAssay AID1030 (National Center for Advancing Translational Sciences (NCATS), 2008).
Where “and” joins values, the source holds several entries; their conditions need not be identical. Equal entries are not always repeated. Among all 220,000 compounds or so, about 16,000 (7.3%) were called active. The shares of active, inactive and inconclusive entries below differ from those in the screen. The call rests on the fitted dose curve; in most records, active means well fitted inhibition curve with a large enough effect (not every such curve was filed as active); inconclusive means small, poorly fitted or top-dose-only effect, or another doubt; inactive means no such curve, though single readings can be large or run the other way. Where the call is inconclusive, the potency comes from a doubtful curve fit.

Target: Aldehyde dehydrogenase 1A1 (Homo sapiens) (UniProt P00352)
Chain of UniProt P00352 (P00352 whole entry, looked up): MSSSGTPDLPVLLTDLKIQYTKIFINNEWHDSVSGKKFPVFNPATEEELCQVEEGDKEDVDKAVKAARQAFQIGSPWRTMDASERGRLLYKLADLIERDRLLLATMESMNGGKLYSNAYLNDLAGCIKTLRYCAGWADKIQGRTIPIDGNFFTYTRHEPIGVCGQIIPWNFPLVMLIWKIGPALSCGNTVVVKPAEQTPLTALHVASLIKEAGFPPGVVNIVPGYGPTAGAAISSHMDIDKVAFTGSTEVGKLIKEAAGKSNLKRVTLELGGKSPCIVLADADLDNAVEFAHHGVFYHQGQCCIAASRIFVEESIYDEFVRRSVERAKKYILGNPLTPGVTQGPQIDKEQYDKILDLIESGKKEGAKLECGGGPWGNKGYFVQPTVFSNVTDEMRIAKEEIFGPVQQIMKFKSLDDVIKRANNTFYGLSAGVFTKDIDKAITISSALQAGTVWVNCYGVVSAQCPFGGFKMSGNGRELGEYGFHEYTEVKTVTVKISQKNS
Assay: qHTS Assay for Inhibitors of Aldehyde Dehydrogenase 1 (ALDH1A1);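 on activity, negative = inhibition: plate controls were no enzyme wells and a reference inhibitor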
Conditions: Purified ALDH1A1, NADH fluorescence, propionaldehyde substrate; series mostly up to 75.3 µM; activity, negative = inhibition: at the top concentration
Potency means the concentration at half of the fitted maximal effect; tags describe the fitted curve by direction and shape.

Potency, active:
COC(=O)CCCC1=CC2=C(c3ccccc3)C(=O)C(C)(OC(=O)C3CCCC3)C(=O)C2=CN1CCc1c[nH]c2ccccc12 (configuration not stated) 3.16 µM

Potency, inconclusive:
CCOC(=O)CNc1nc2ccccc2n2c(C)nnc12 31.6 µM [inhibitor, single point]
CC(C)C(NC(=O)c1ccco1)C(=O)OCc1cc([N+](=O)[O-])cc2c1OCOC2 (configuration not stated) 25.1 µM [inhibitor, single point]
COC(=O)Nc1ccc(S(=O)(=O)N2CCN(CCN3C(=O)C4C5C=CC(C5)C4C3=O)CC2)cc1 (configuration not stated) 20 µM [inhibitor, single point]
CCc1cc(C(=O)N/N=C/c2c(C)[nH]c3ccccc23)cs1 39.8 µM [inhibitor, single point]
Cc1cc(=O)oc2cc(OCC(=O)OCC(=O)Nc3ccc(C(C)C)cc3)ccc12 25.1 µM [inhibitor, partial curve]
Cc1ccc(-c2nc(CN(CC3CCC3)CC3CCCO3)c(C)o2)s1 (configuration not stated) 37.7 µM [inhibitor, single point]
COCC(=O)N(Cc1cc2cc(OC)ccc2[nH]c1=O)c1ccc(C)cc1 39.8 µM [inhibitor, single point]
COc1ccc(NC(=O)C(=O)NCCN2CCN(C(=O)c3cccs3)CC2)cc1 39.8 µM [inhibitor, single point]
CC(C)(C)NC(=O)NC(=O)COC(=O)Cc1ccc(Cl)cc1Cl 28.2 µM [inhibitor, single point]
CCN1N=C(c2ccccc2)Cn2c1nc1ccccc12 35.5 µM [inhibitor, partial curve]
CCOC(=O)C1CCN(CC(=O)N(CC(C)C)c2c(N)n(CC(C)C)c(=O)[nH]c2=O)CC1 39.8 µM [inhibitor, single point]
COc1ccc(-c2nc3cnc(N4CCNCC4)nc3n(CCc3ccccc3)c2=O)cc1 25.1 µM [inhibitor, partial curve]
COc1ccc(COc2cc(-c3cccc(OC)c3)nc3ccc(NC(=O)c4ccc(C)cc4)cc23)cc1 35.5 µM [inhibitor, single point] and 20 µM [inhibitor, partial curve]

activity, negative = inhibition, inactive:
C[N+]1(CCC(=O)c2ccco2)CC2CCC(CC2)C1 (configuration not stated) 4.9% [at 13.5 µM]
NC(=O)CNc1n[nH]c(=S)[nH]c1=O 0.391%
O=C(NC(Cc1c[nH]c2ccccc12)C(=O)N/N=C/c1cccnc1)c1cccs1 (configuration not stated) -4.73%
